# From ChEMBL document CHEMBL1156829
# Several values for one entry are separate records, joined by “and”; a condition that tells them apart may be missing. Equal entries are not always repeated. The full ranking holds about 5,400 compounds; the median of “IFI” is about 2, and the highest 2% start at about 22. Some of the results follow.
# Test: NOVARTIS: Inhibition Frequency Index (IFI) - the number of HTS assays where a compound showed > 50% inhibition/induction, expressed as a percentage of the number of assays in which the compound was tested.
# Assay type: functional
row,Compound,IFI
1,Cc1ccc(S(=O)(=O)N2CCN(C(=O)c3ccccc3)C2c2ccccc2)cc1 (stereo not drawn),0%
2,Cc1cccc(-n2nc(C(C)(C)C)cc2NC(=O)CN(C(=O)/C=C/c2ccccc2)C(C)C)c1C,0.926%
3,CCCOC(=O)C1=C(C)NC2=C(C(=O)CC(c3ccc(OC)c(OC)c3)C2)C1c1ccccc1Cl (stereo not drawn),2.35%
4,CC(c1nc2ccc(Cl)cc2c(=O)n1C)N1CCN(C(=O)C(C)(C)C)CC1 (stereo not drawn),0%
5,O=C(CCl)Nc1ccc(OC(F)F)cc1,0%
6,NCCCNC(=O)COC(c1ccccc1)c1cccnc1Cl (stereo not drawn),1.94%
7,CCCCN(C)C(=O)CSc1nc(NCc2ccccc2)c2ccccc2n1,0%
8,CCN1CCN(Cc2c(O)ccc3c(=O)c(Oc4ccccc4Br)c(C(F)(F)F)oc23)CC1,1.16%
9,COCCN(CC(=O)NCc1ccc(OC2CCN(CC(c3ccccc3)c3ccccc3)CC2)cc1)S(=O)(=O)c1ccccc1,1.41%
10,COc1ccccc1C(=O)NC1CCN(CC(O)CN(Cc2ccccc2)S(=O)(=O)c2ccccc2)C1 (stereo not drawn),1.94%
11,COc1ccc(NC(=O)Cn2c(C)c(C=O)c3ccccc32)cc1,7.69%
12,CC(C)(C)CC(C)(C)Nc1c(-c2ccccc2OC(=O)/C=C/c2ccccc2)nc2ccccn12,8.33%
13,O=C1c2cccc3c(C4=NN(c5ccccc5)C(c5ccc(Cl)cc5)C4)ccc(c23)C(=O)N1c1ccccc1 (stereo not drawn),0%
14,CCN(CC)CCNc1nc(/C=C/c2ccc(Cl)cc2)nc2cc3ccccc3cc12,8.77%
15,Cc1noc(C)c1C(=O)N1CCC(O)(c2ccccn2)CC1,0%
16,Cc1c2ccccc2c(-c2ccccc2)c2ccccc12,3.01%
17,C=CC[N+]1(CC#Cc2cccc3ccccc23)CCCCC1,0%
18,CN(C)CCCNC1=NC=NC2C=C(Cl)C=CC12 (stereo not drawn),1.24%
19,CCN(CC)CCN(Cc1cc2c(C)cc(C)cc2[nH]c1=O)C(=S)NCCCN(C)C,2.08%
20,COc1ccc(/C=C2\SC(=S)N(CC(=O)NNC(=O)c3ccncc3)C2=O)cc1,1.16%
21,Cc1cc2c(cc1C)-c1c(ssc1=Nc1cccc(C)c1C)C(C)(C)N2,0%
22,C=CCOC(=O)C1=C(C)N2CCSC2=C(C#N)C1c1ccco1 (stereo not drawn),1.06%
23,CCCOC(=O)c1c(NC(=O)c2c(I)cnn2C)sc2c1CCCCC2,0%
24,CN(C)CC(C)(C)CNCc1cc(-c2ccnc3cc(Cl)ccc23)ccc1O,4.42%
25,Cc1ccccc1-c1cccc(CN2CCCCC2CCn2cc(C(=O)NC3CC3)nn2)c1 (stereo not drawn),1.94%
26,CCCCN(CC)CCNC(=O)C1c2ccccc2C(=O)N(Cc2ccc(F)cc2)C1c1ccc(OC)cc1 (stereo not drawn),0%

row,Compound,IFI
1,OCCN(CCO)CC(O)Cn1c2ccc(Br)cc2c2cc(Br)ccc21 (stereo not drawn),2.08%
2,Cc1ccc(OCCCCCCNCCO)c(C)c1,0%
3,"GNF-Pf-2945, CHEMBL581676",1.82%
4,CCOC(=O)C1=C(C)N=c2sc(=Cc3cc(Cl)ccc3O)c(=O)n2C1c1ccc(OC)c(OC)c1 (stereo not drawn),3.53% and 3.57%
5,COc1ccc(CCNc2ncnc3c2[nH]c2ccccc23)cc1,13.7%
6,CCC(c1nc2ccccc2c(=O)n1-c1ccccc1OC)N(CCc1ccccc1)C(=O)CCc1ccccc1 (stereo not drawn),2.25%
7,CCc1nc2nc(C)cc(Nc3ccc(I)cc3)n2n1,0%
8,CC1=[N+](CC(=O)c2ccc(C)cc2)CCn2c(C)ccc21,0%
9,CN(C)c1ccc(N/C=C/C(=O)C(C)(C)C)cc1,4.54%
10,Cc1ccc(-n2c(-c3ccccc3)cc(C=NNC(=O)c3cccc(-n4c(C)ccc4C)c3)c2-c2ccccc2)cc1,0%
11,CCC(=O)c1c(C)n(-c2ccc(Br)cc2)c2ccc(O)cc12,0%
12,Cc1ccccc1Cn1c(=N)n(CC(O)c2ccc(Cl)c(Cl)c2)c2ccccc21 (stereo not drawn),3.23%
13,O=C(Cn1c(=O)oc2cc(S(=O)(=O)NCc3ccccc3)ccc21)NC1CCCCC1,0%
14,N=c1c2c(n(Cc3ccccc3Cl)c3c1CCC3)CCCC2,6.25%
15,COc1ccc(C2CC(=O)C3=C(C2)NC(C)=C(C(=O)OC2CCCC2)C3c2ccccc2)cc1 (stereo not drawn),5.81%
16,O=C1C2C(C(=O)N1c1ccc(F)cc1)C1(c3ccccc3)C(=O)C2(c2ccccc2)C(c2ccccc2)=C1c1ccccc1 (stereo not drawn),0%
17,CCCCCC[n+]1ccccc1C=Cc1ccc(N(C)C)cc1,27.6%
18,O=C(Nc1ccc2c(c1)CN(C1CCSCC1)CC2)C1(c2ccccc2)CC1,0%
19,O=C(c1ccc2nc(N3CCCCC3)sc2c1)N1CCN(Cc2ccc3c(c2)OCO3)CC1,2.86%
20,O=C1c2ccccc2C(=O)c2c1ccc1nonc21,30.8%
21,O=C(O)CSc1ccc(C(=O)NC2CCCCNC2=O)cn1 (stereo not drawn),1.39%
22,COc1ccc(C2CC(=O)C3=C(C2)NC(C)=C(C(=O)OC2CCCC2)C3c2ccccc2C)cc1OC (stereo not drawn),4.76%
23,CN(C)CCNC(=O)c1cc2c(-c3ccc(Cl)cc3)nn(C)c2s1,7.69%
24,CC(C)CC(=O)Nc1nnc(-c2ccc(Br)cc2)s1,0%
25,CC(C)CNC(=O)c1cnc(NCCCn2ccnc2)nc1Nc1ccccc1,1.92%
26,CCCC(C)C(C(=O)NCc1ccccc1)N1C(=O)c2cc(NC(C)=O)ccc2NC(=O)[C@@H]1c1ccccc1 (stereo partly drawn),2.44%

row,Compound,IFI
1,COc1ccc(-n2nc(C(C)(C)C)cc2NC(=O)CN(C(=O)c2ccc(C)c([N+](=O)[O-])c2)C(C)C)cc1,0.82%
2,COCCn1nnnc1C(c1cc2cc3c(cc2[nH]c1=O)OCCO3)N1CCC(O)CC1 (stereo not drawn),0%
3,Cc1cccc(NC(=O)CCCn2c(=O)c3cccn3c3ccccc32)c1C,3.45%
4,Cc1nnc(Nc2ccc(F)cc2)c2ccccc12,0%
5,CSc1ccc(/C=C/C(=O)NC(=O)c2ccccc2O)cc1,7.69%
6,CCCOC(=O)C1=C(C)NC2=C(C(=O)CC(c3ccc(OC)c(OC)c3)C2)C1c1ccccc1F (stereo not drawn),2.35%
7,OCCNc1nc(Nc2ccccc2)nc2ccccc12,1.44%
8,Cc1ccn2c(NC(C)(C)CC(C)(C)C)c(-c3ccccc3OC(=O)c3ccc(Br)cc3)nc2c1,5.26%
9,COc1ccccc1C1CC(=O)N2CN(Cc3ccccc3)CSC2=C1C#N (stereo not drawn),0%
10,CCCCn1nccc1Nc1cc(C)c(C#N)c2nc3ccccc3n12,3.23%
11,CC(=NOC(=O)c1ccco1)c1cnccn1,2.63%
12,O=C(c1cccc(F)c1)N1CCN(Cc2ccncc2)CC1,0%
13,COc1ccc(NC(C)=C2C(=O)c3ccccc3C2=O)c(OC)c1,15.4%
14,CN1CCC(N[C@@H]2C[C@@H](C(=O)N3CCN(c4cccc(C(F)(F)F)c4)CC3)N(Cc3ccccc3Cl)C2)CC1,1%
15,CC[n+]1c(/C=C2\Sc3ccccc3N2CCO)ccc2cc(C)ccc21,6.35%
16,Cc1ccc(N=C2NC(=O)/C(=C\c3cc(C)n(-c4cccc([N+](=O)[O-])c4)c3C)S2)cc1,2.35%
17,c1ccc2c(NCCc3c[nH]cn3)c3ccccc3nc2c1,9.09%
18,CCOC(=O)c1cc(S(=O)(=O)NCc2ccc(F)cc2)n[nH]1,0%
19,COc1cccc(-c2ccc(O)c(CNC34CC5CC(CC(C5)C3)C4)c2)n1,3.45%
20,c1ccc(-c2nc3cc4ccccc4cc3nc2-c2ccsc2)cc1,2.94%
21,O=c1c2ccccc2nc2n1CCN2Cc1ccc(Cl)cc1,7.58%
22,CC(C(=O)NCCCN)N(Cc1ccccc1)S(C)(=O)=O (stereo not drawn),3.92%
23,Cc1ccc(C(=O)NCCCCNc2ccnc3cc(Cl)ccc23)cc1[N+](=O)[O-],2.1%
24,C=CCNc1ncnc2c1c(-c1ccccc1)cn2-c1ccccc1,0%
25,CCN(CC)C(=O)c1cn(C2CCN(C(=O)CCc3cccc(OC)c3)CC2)nn1,0.877%
26,CN1/C(=C/C=C/c2oc3ccccc3[n+]2C)Oc2ccccc21,21.1%

row,Compound,IFI
1,C=CCc1cccc(C=NNc2nc3ccccc3[nH]2)c1O,0%
2,CN1C=CC(=Cc2sc3ccccc3[n+]2C)C=C1,0%
3,COc1ccc(C2C3=C(O)CC(C)(C)CC3=Nc3[nH]nc(C)c32)cc1 (stereo not drawn),5.2%
4,CON(C)C=C(C(=O)Nc1ccc(C(F)(F)F)cc1)C(=O)Nc1ccc(C(F)(F)F)cc1,3.9%
5,C#CCN1c2ccccc2Sc2cccnc21,6.17%
6,CCCc1cc2c(=O)c(-c3cc4ccccc4o3)coc2cc1OC(C)C(=O)OCC (stereo not drawn),4.76%
7,C=CCOc1cccc(C(Nc2cccc(C)n2)c2ccc3cccnc3c2O)c1 (stereo not drawn),0%
8,NN1C(=O)NC(=O)C1Nc1cccc([N+](=O)[O-])c1 (stereo not drawn),0%
9,CN(CCCNc1ccnc2cc(Cl)ccc12)S(=O)(=O)c1ccc(Cl)c([N+](=O)[O-])c1,1.89%
10,CCc1ccc2ncc(C(=O)OCCOC)c(O)c2c1,0%
11,Cc1cccc(-c2nc3cc(NC(=O)c4ccc([N+](=O)[O-])o4)ccc3o2)c1,0%
12,Cc1cc(C)cc(Nc2cc(C)nc3ncnn23)c1,0%
13,CCC(C(=O)Nc1sccc1C#N)c1ccccc1 (stereo not drawn),0%
14,CC(C)CNC(=O)c1cnc(NCCCN(C)C)nc1NCCc1ccccc1,0.962%
15,COc1cccc2c(C)cc(NCc3ccccc3Cl)nc12,0%
16,CC1=CC(=Cc2sc3ccccc3[n+]2C)C=C(C)O1,16.7%
17,CCCCNC(=O)C1CCC(CN(Cc2c(Cl)cccc2Cl)S(=O)(=O)c2ccc(Br)cc2)CC1 (stereo not drawn),0%
18,CCOc1ccc(N(C(C)=O)C2=C(N3CCN(C)CC3)C(=O)c3ccccc3C2=O)cc1,9.09%
19,CCCCCN(C(=O)c1ccc(C)cc1)C(CC)c1nc2ccccc2c(=O)n1-c1ccccc1OC (stereo not drawn),1.89%
20,CCOc1ccc(-c2nc(NC(=O)CS(=O)(=O)c3ccccc3)sc2C)cc1,0%
21,Cc1ccccc1Nc1nc(NCc2ccco2)c2ccccc2n1,7.14%
22,O=C(c1ccc(-n2c(SCc3ccc(Cl)cc3)nc3ccccc3c2=O)cc1)N1CCOCC1,0%
23,CN(C)c1ccc(/C=C/c2cccc[n+]2C)cc1,6.3%
24,Cn1c(=O)c2c(ncn2CC(O)CN=C2CCCCN2)n(C)c1=O (stereo not drawn),0%
25,CC(C)CN(CC(=O)Nc1cc(C(C)(C)C)nn1-c1ccccc1)C(=O)Cc1cccs1,0.935%
